Experimental data: PubChem BioAssay AID504339 (National Center for Advancing Translational Sciences (NCATS), 2011)
In all, about 390,000 compounds went through this assay and about 17,000 (4.4%) were called active. The shares of active, inactive and inconclusive entries below differ from those in the screen. Calls follow the shape of the dose curve; as a rule, active = well fitted inhibition curve with a large enough effect; inconclusive = small, poorly fitted or top-dose-only effect; inactive = no such curve, though single readings can be large or run the other way. Potencies of inconclusive entries are doubtful fits and often do not repeat.

What follows are molecules tested against Lysine-specific demethylase 4A (Homo sapiens) (UniProt O75164) (assay: qHTS Assay for Inhibitors of JMJD2A-Tudor Domain). Details: AlphaScreen JMJD2A-Tudor / H3K4me3 peptide binding; activity change, negative = inhibition: at 114 µM (top of the series).
Chain of UniProt O75164 (O75164 whole entry, looked up, the tested form may be a part): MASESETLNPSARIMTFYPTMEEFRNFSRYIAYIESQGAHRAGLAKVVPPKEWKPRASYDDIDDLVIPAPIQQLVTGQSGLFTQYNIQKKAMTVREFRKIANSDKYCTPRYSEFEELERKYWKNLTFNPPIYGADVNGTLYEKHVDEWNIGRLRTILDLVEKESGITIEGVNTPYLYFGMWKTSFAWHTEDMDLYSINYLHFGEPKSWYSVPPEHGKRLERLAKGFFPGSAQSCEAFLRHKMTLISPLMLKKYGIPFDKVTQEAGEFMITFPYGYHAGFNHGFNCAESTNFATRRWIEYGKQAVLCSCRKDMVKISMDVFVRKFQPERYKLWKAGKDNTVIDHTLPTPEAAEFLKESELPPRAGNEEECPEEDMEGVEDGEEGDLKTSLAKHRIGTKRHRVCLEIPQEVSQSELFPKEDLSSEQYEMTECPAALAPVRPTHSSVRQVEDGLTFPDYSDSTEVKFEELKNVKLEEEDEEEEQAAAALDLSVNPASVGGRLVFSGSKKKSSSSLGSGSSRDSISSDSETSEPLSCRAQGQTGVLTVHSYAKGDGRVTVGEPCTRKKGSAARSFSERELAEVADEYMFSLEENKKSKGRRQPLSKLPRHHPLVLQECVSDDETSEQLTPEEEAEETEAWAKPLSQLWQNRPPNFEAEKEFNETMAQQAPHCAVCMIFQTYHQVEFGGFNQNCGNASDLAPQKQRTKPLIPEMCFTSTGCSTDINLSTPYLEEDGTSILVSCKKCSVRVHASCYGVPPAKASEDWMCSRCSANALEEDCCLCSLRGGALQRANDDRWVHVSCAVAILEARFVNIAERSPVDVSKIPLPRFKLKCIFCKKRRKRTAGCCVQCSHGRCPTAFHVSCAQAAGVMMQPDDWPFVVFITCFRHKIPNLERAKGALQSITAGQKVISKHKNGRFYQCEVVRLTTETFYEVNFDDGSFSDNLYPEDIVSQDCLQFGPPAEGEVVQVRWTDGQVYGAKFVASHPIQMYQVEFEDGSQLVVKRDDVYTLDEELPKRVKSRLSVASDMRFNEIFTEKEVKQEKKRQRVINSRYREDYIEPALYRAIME
% is scaled to controls: 0 for no effect and ±100 for the full control effect; potency is read from the fitted curve at half-maximal effect; tags tell the direction and shape of the fitted curve.
Also: nearly all actives have a fitted effect of over 50% in size.

Potency, active:
C/C(=C\C(=S)Nc1ccccc1)Nc1ccc2ccccc2c1 79.4 µM, CC(C)CCNCC(=O)NC(c1ccccc1)c1ccccc1 31.6 µM, COc1ccc(CCNCC(O)COc2cccc(Br)c2)cc1OC (stereo not drawn) 1 µM, COc1cc(OC)c(C2CC(=O)N3CN(c4ccccc4)CSC3=C2C#N)cc1OC (stereo not drawn) 5.62 µM, Cc1ncc(CO)c(/C=N/NC(=O)c2cc3c(s2)CCCC3)c1O 56.2 µM, CCOC(=O)CSC1=C(C#N)C(=O)NC2(CCCCC2)S1 44.7 µM, Cc1coc2c1C(=O)C(=O)c1c-2ccc2c(C)cccc12 35.5 µM

Potency, inconclusive:
COc1cccc(Nc2nc(N)c([N+](=O)[O-])c(NCc3ccccc3)n2)c1 44.7 µM [inhibitor, partial curve], O=C(COc1ccc2ccccc2c1)N/N=C/c1ccccn1 11.2 µM [inhibitor, full curve], O=c1[nH]c2ccc(S(=O)(=O)NCc3ccccn3)cc2s1 12.6 µM [inhibitor, partial curve], C=CCN(CC=C)CCOc1ccc(OC(C)C)cc1 70.8 µM [inhibitor, single point], O=C(c1ccc2ccccc2c1)N1CCN(c2ccc([N+](=O)[O-])c(N3CCOCC3)c2)CC1 20 µM [inhibitor, full curve, poor fit], COc1ccc(-c2[nH]c(-c3ccccc3)nc2SCC(=O)Nc2nccs2)cc1 50.1 µM [inhibitor, partial curve], N=C1/C(=C/c2coc3ccccc3c2=O)C(=O)N=C2SC(c3ccco3)=NN12 89.1 µM [inhibitor, single point], C=CCN1C(=O)/C(=C/c2ccc(-c3ccc(F)cc3)o2)SC1=S 11.2 µM [inhibitor, partial curve], COc1cc(/C=N/NC(=O)c2cccc(NC(=O)c3ccccc3C)c2)ccc1O 100 µM [inhibitor, partial curve], Clc1ccc(-c2cn3cc(Br)ccc3n2)cc1Cl 44.7 µM [inhibitor, partial curve], COC(=O)c1cccc(/C=N/NC(N)=S)c1O 12.6 µM [inhibitor, full curve, poor fit], Cc1cc(C)nc(SCC(=O)N/N=C/c2cccn2-c2ccc(O)cc2)n1 79.4 µM [inhibitor, single point], Cc1ccc(NC(=S)N2CCn3cccc3C2c2cccnc2)cc1 (stereo not drawn) 56.2 µM [inhibitor, partial curve], Cc1cc(C)n(-c2nc(NC(C)(C)C)nc(NC(C)(C)C)n2)n1 100 µM [inhibitor, single point], COc1cc(OC)c(OC)cc1CN1CCCC(C(=O)c2ccccc2SC)C1 (stereo not drawn) 12.6 µM [inhibitor, full curve, poor fit], Cc1cc(C)nc(NN2C(=O)C=CC2=O)n1 70.8 µM [inhibitor, partial curve], O=C(NCCSc1ccc(Br)cc1)c1ccccc1 31.6 µM [inhibitor, single point], O=C(Nc1ccc(O)cc1)c1ccc2c(c1)C(=O)N(Cc1ccco1)C2=O 63.1 µM [inhibitor, single point], COc1ccc(-n2c(O)cnc2Nc2nc(C)cc(C)n2)cc1OC 100 µM [inhibitor, single point], CCOC(=O)C1=C(CN2CCN(c3cccc(Cl)c3)CC2)NC(=O)NC1c1ccc(Cl)cc1 (stereo not drawn) 8.91 µM [inhibitor, full curve], c1ccc(C[C@H]2CNCCN2CCC23CC4CC(CC(C4)C2)C3)cc1 63.1 µM [inhibitor, partial curve], COc1ccccc1NS(=O)(=O)c1ccc(N/N=C/c2c(C)nn(-c3ccccc3)c2N2CCCC2)c([N+](=O)[O-])c1 4.47 µM [inhibitor, full curve], Nc1c(C=C2C=CC(=O)C=C2)c(=O)nc2snc(SCc3ccccc3)n12 56.2 µM [inhibitor, partial curve], Fc1ccc(-c2nc(Nc3cccc(C(F)(F)F)c3)nc3c2COc2ccccc2-3)cc1 11.2 µM [inhibitor, full curve], COc1ccc(N2CCN(CCCNC(=O)Nc3ccccc3)CC2)cc1 44.7 µM [inhibitor, partial curve], CC(C)Oc1cc(O)c2c(=O)c(-c3ccc(O)cc3)coc2c1 56.2 µM [inhibitor, partial curve], CO/N=C/NC(=O)c1ccc([N+](=O)[O-])c(CS(=O)(=O)c2ccc(Cl)cc2)c1 3.16 µM [inhibitor, single point], COc1cccc(CC2(CO)CCCN(Cc3cc4ccccc4[nH]3)C2)c1 (stereo not drawn) 12.6 µM [inhibitor, full curve, poor fit], Cc1cccc(N2C(=O)/C(=C\c3ccc(OC(F)F)cc3)c3ccccc3C2=O)c1 70.8 µM [inhibitor, single point], COC(=O)C(=O)/C=C(\O)c1c(C)cc(C)cc1C 10 µM [inhibitor, partial curve, poor fit], Cc1c(CCC(=O)NCCCn2ccnc2)c(=O)oc2cc3oc4c(c3cc12)CCCC4 50.1 µM [inhibitor, partial curve], Cc1ccc(N(CC(=O)Nc2ccc(Cl)cc2)S(=O)(=O)c2cccc3nonc23)cc1 35.5 µM [inhibitor, partial curve], COc1ccc(Nc2cc(C(=O)NCCCN3CCOCC3)c3ccccc3n2)c(OC)c1 63.1 µM [inhibitor, partial curve, poor fit], COCCNC(=S)N(CCc1c(C)[nH]c2ccc(Cl)cc12)Cc1cccs1 50.1 µM [inhibitor, partial curve], Cc1ccc(C)c(N2CCN(CCCNC(=O)Cn3cccc3C(=O)c3ccccc3)CC2)c1 50.1 µM [inhibitor, partial curve], COc1ccccc1CN1CCN(Cc2nc(-c3ccc(C)cc3)oc2C)CC1 56.2 µM [inhibitor, partial curve, poor fit], Cc1ccc(NC(=O)c2cnn3c2NC(c2ccccc2)=CC3c2ccccc2)cc1 (stereo not drawn) 25.1 µM [inhibitor, full curve], Cc1cc(C)n2c(=S)[nH]nc2n1 4.47 µM [inhibitor, single point], O=C(N/N=C\c1cccc([N+](=O)[O-])c1O)C1COc2ccccc2O1 (stereo not drawn) 79.4 µM [inhibitor, single point], Cc1ccc(N(CC(=O)NCC(O)c2ccccc2)S(=O)(=O)c2ccc(C)cc2)cc1 (stereo not drawn) 79.4 µM [inhibitor, single point], Nc1nc(CN2CCN(c3ccccn3)CC2)nc(Nc2ccc(Cl)cc2)n1 63.1 µM [inhibitor, partial curve], CN(C)c1ccc(NC(=O)CSc2nc3c(c(=O)[nH]2)CCCC3)cc1 56.2 µM [inhibitor, partial curve], O=[N+]([O-])c1ccc(Nc2ccc(N3CCOCC3)cc2)c([N+](=O)[O-])c1 17.8 µM [inhibitor, partial curve], CC(C)(C)CNc1cc(N2CCOCC2)ccc1[N+](=O)[O-] 56.2 µM [inhibitor, partial curve], COc1ccccc1OCC(=O)NNc1c2ccccc2nc2ccccc12 56.2 µM [inhibitor, partial curve]

Activity change, negative = inhibition, inconclusive:
COc1ccc(CN(CC2CCCO2)C(=O)c2cc3sccc3n2C)c(OC)c1 (stereo not drawn) -52.2% [inhibitor]

Activity change, negative = inhibition, inactive:
Cc1ccccc1C(=O)N1CCC(C(=O)Nc2ccc(S(=O)(=O)N3CCCCC3)cc2)CC1 -11.8%, COc1cc(NC(=O)c2cc([N+](=O)[O-])ccc2NC(=O)CN2CCN(c3ccccn3)CC2)cc(OC)c1 -27.8%, CC(=O)Nc1ccc(SCC(=O)Nc2ccccc2N2CCOCC2)cc1 -5.48%, CCOC(=O)c1c(-c2ccccc2)csc1NC(=O)CSc1ccccc1 38.3%, COc1ccc(NC(=O)CCCn2nc(C)c3sc4ccccc4c3c2=O)cc1 -2.65%, CCn1c(COc2ccc(C)cc2)nnc1SCc1nc2ccccc2[nH]1 -32.4%, CCCc1nc(NCc2ccccc2)c(C#N)c2c1CCCC2 22.2%, Cc1ccc(C(=O)Nc2cccc(S(=O)(=O)N(C)c3ccccc3)c2)o1 -24.8%, COC(=O)c1sccc1S(=O)(=O)N(CC(=O)NCc1ccc(C)cc1)c1ccc(C)cc1 -22%, CC(=O)c1cccc(OCC(=O)Nc2ccccc2N2CCOCC2)c1 2.94%, COc1ccccc1CC(NC(C)=O)C(=O)NC1CCN(C(=O)Nc2ccc(F)cc2)CC1 (stereo not drawn) 1.52%, Nc1nc(-c2cc3c(cc2Cl)OCCO3)cs1 -22.8%, O=C(NCc1cccnc1)c1nn(-c2ccc(F)cc2)nc1CO -16%, CCC(Sc1nnc(C)n2c1cc1occc12)C(=O)Nc1ccccc1OC (stereo not drawn) -21.6%, O=S(=O)(c1cc(F)ccc1F)N1CCN(C2CCCCC2)CC1 -21.9%
